{"source": "patent US20260116991A1", "binders": {"B1": {"name": "T2-23 scFv-hFc (Fc fusion)", "chain": "QSALTQPPSASGSPGQSVTISCTGTSSDVGGYNYVSWYQQYPGKAPKLLIYGNSNRPSGVPDRFSGSKSGTSASLAITGLQAEDGADYYCQSYDSSLRVVFGGGTKVTVLGGGGGSGGGGSGGGGSQVQLQESGGGLVQPGRSLRLSCAASGFTFSSYAMHWVRQAPGKGLEWVSAISSSGRSTYYADSVEGRFTISRDNSKNTLYLQMNSLRAEDTAVYYCAKDRRGSHADALNVWGQGTLVTVSS[human IgG1 Fc with changes not shown]"}}, "key": {"[1]": {"target": "monkey GPC3-His protein (monkey)", "experiment": "ELISA, monkey GPC3-His coated"}, "[2]": {"target": "monkey GPC3 on HEK293T-monkey GPC3 cells (monkey)", "experiment": "FACS on HEK293T-monkey GPC3 cells"}}, "note": "“And” between values parts separate entries of the source, which are not always exact repeats. Equal values may be shown once."}
{"binder": "B1", "values": [{"measurement": "OD450 at 0.0001 nM", "setting": "[1]", "value": 0.05, "unit": "OD450"}, {"measurement": "OD450 at 0.001 nM", "setting": "[1]", "value": 0.1, "unit": "OD450"}, {"measurement": "OD450 at 0.01 nM", "setting": "[1]", "value": 0.41, "unit": "OD450"}, {"measurement": "OD450 at 0.1 nM", "setting": "[1]", "value": 1.68, "unit": "OD450"}, {"measurement": "OD450 at 1 nM", "setting": "[1]", "value": 2.19, "unit": "OD450"}, {"measurement": "OD450 at 10 nM", "setting": "[1]", "value": 2.45, "unit": "OD450"}, {"measurement": "OD450 at 100 nM", "setting": "[1]", "value": 2.28, "unit": "OD450"}, {"measurement": "EC50", "setting": "[2]", "value": "0.44 nM and 0.56 nM"}]}
